In the supplement of paper PMC3334620:
The full ranking holds about 33,000 sequences; the median of “E-score (-0.5 to 0.5)” is about -0.01, and the highest 2% start at about 0.26. The list shows a part of the results.

molecular target: Ste12 (UniProt P13574); test: PBM E-score (8-mer binding enrichment) (E-score (-0.5 to 0.5)); higher = stronger / more preferred TF binding; most listed sequences are background and not binding sites; conditions: protein concentration: 200 nM; construct: GST-DNA-binding domain
Procedure, shortened: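 GST-tagged yeast TFs (full-length or DNA-binding domain) were made by PURExpress in vitro transcription/translation and applied at about 100-200 nM to universal all-10-mer Agilent arrays. The arrays were made double-stranded by primer extension, on fresh or once-stripped slides. Bound protein was detected with fluorescent anti-GST, and scans were normalised with masliner. Each ungapped eight-base word, pooled with its reverse complement, received an E-score (modified Wilcoxon-Mann-Whitney statistic) from the Universal PBM Analysis Suite.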

In order of falling “PBM E-score” value:
1. ATTTGAAA  0.366
2. TAAAAAAA  0.313
3. AAATAATT  0.294
4. CGTTTGAA  0.265
5. CAACAAAG  0.234
6. ATTTTGCG  0.221
7. AAAACTAA  0.219
8. AGTAAAAA  0.214
9. CCGCAATA  0.211
10. GCGAATGA  0.207
11. AAACCAAC  0.202
12. ACACCAAT  0.201
13. AATATAAG  0.198
14. ACATCAAA  0.196
15. TAATCAAA  0.193
16. CGACAGAA  0.18
17. AATATTCT  0.178
18. CTATATAA  0.174
19. TCCTGACA  0.172
20. CACCGGCG  0.161
21. ACCGCGGC  0.16
22. TCGCTGAA  0.16
23. CAGAACTG  0.157
24. ACGAATCA  0.155
25. AGCGGTAT  0.146
26. ATGGTGAA  0.141
27. AAGCACTG  0.137
28. AGATATTG  0.126
29. ATTATAGG  0.12
30. CCGAATGA  0.109
31. AATTACAC  0.109
32. CACTCCAC  0.108
33. ATTCAGGC  0.107
34. ACCCGGCA  0.106
35. ATCACAAA  0.105
36. AATGAACC  0.105
37. TATAAGCA  0.105
38. CAGTTTTA  0.104
39. AATATTCC  0.1
40. CTGATGCA  0.099
41. ACTCAACA  0.0976
42. ACAGTACG  0.0951
43. CGAATTAG  0.095
44. TAATGTGA  0.0898
45. ATGTTTAA  0.0895
46. CGGCGCAC  0.0831
47. ATGAATCC  0.0829
48. CTCAGAAC  0.0826
49. ACCAGGAT  0.0826
50. AGGCGCGC  0.0793
51. GCTTATCC  0.0792
52. ATACTGTC  0.079
53. ATTCCTAG  0.0776
54. AACATCGA  0.0765
55. AACTGCAT  0.0751
56. ACTTTCTG  0.0746
57. ATCCGGAT  0.0708
58. ATGCGCAT  0.0672
59. CAACCTGC  0.0657
60. AACCTGAT  0.065
61. ACGTTTCT  0.064
62. GGATCGAC  0.0627
63. AGAATTTC  0.0625
64. TGCCTCAA  0.0616
65. CGCGATCA  0.0613
66. CGCACCAC  0.0559
67. CCGTCGAG  0.0552
68. CTGTGTCA  0.0491
69. CTTACCGC  0.0479
70. ATCAGGAT  0.0464
71. TCGCACAA  0.0442
72. AATACTGT  0.0421
73. AGAGAACG  0.0408
74. GTGCATCA  0.0365
75. CGGATCGA  0.0353
76. CAAATCGA  0.0344
77. CTATGAAG  0.0327
78. CACCTCTG  0.0309
79. AGGTCAAT  0.0292
80. AATATGCT  0.0289
81. CTATATGA  0.0256
82. GACGCCGC  0.0252
83. AATCCAAC  0.0243
84. ACTCTATC  0.0243
85. GCTTTCAA  0.0208
86. AAACCTAT  0.016
87. GGCAGCTA  0.016
88. ACAAAGGG  0.0154
89. AGAAGTCA  0.0152
90. ATAAGTGG  0.0151
91. ACCCTAGA  0.00545
92. GCTCTGTA  0.00073
93. TGACGCAA  -0.00394
94. CGCCGGCC  -0.00587
95. CTACGCTC  -0.00605
96. ACTAAAGA  -0.00648
97. GTACCTGA  -0.00708
98. CGTGAGGA  -0.00787
99. CATCCGAG  -0.00822
100. GCGCCCCC  -0.00845
101. CTTCAAAG  -0.00913
102. GCAATTAC  -0.0103
103. CACAGCCG  -0.0111
104. CGTACGAG  -0.0129
105. ACCACCGT  -0.0139
106. CGTGTTAA  -0.0275
107. CCTATTAC  -0.0282
108. ACGCTTCG  -0.0299
109. ACTTCTAC  -0.032
110. GAGTCTAA  -0.033
111. CCCCGGGC  -0.034
112. ACGGCTTG  -0.0342
113. CCTCCGGC  -0.0362
114. AACTCCTA  -0.0367
115. ATCGGGCG  -0.0404
116. CCGTTAAA  -0.042
117. GGCAGAGA  -0.0424
118. AGACTCCT  -0.0428
119. AGTAGGGA  -0.0437
120. ATACATTG  -0.0453
121. AACGTGAG  -0.0454
122. AAGCAAAG  -0.0466
123. GCGTGAAC  -0.0471
124. GGGTATAC  -0.0489
125. GCGGACTA  -0.0505
126. CAGCCAAC  -0.0527
127. CAAGGCAC  -0.0553
128. GGGCGGTA  -0.0589
129. ATGGCGGC  -0.0608
130. CGATGAGC  -0.0631
131. CAGTCCAC  -0.0647
132. CACGCCGC  -0.065
133. ATCTCCTC  -0.0662
134. GGACCGCA  -0.0717
135. GTAGTTCA  -0.0732
136. CGGTTCAA  -0.074
137. ATGTACAG  -0.0771
138. AGCGTGGA  -0.0812
139. CGTGCCAC  -0.0815
140. CGCTTATA  -0.0823
141. ACTGACCA  -0.0856
142. AGACGCAG  -0.0879
143. CCGTTTGC  -0.0882
144. CCAGCTTA  -0.091
145. ATGGAGCC  -0.0938
146. AGCCTCAC  -0.0946
147. AGGCGGAA  -0.0949
148. CGTCTTTC  -0.0954
149. AAGGGTTA  -0.0972
150. AGGTGGTA  -0.0982
151. AGTTACCC  -0.0983
152. AACGTGCG  -0.0985
153. GATACGAA  -0.0992
154. AGAGATGC  -0.0997
155. CGCCGACA  -0.0997
156. ACTACCGC  -0.102
157. CTACCAAC  -0.103
158. GGTTGAGA  -0.103
159. GCAGATCA  -0.109
160. GGGGTAAC  -0.11
161. ATCGTATA  -0.11
162. ACACGGTG  -0.116
163. CCAAAGGA  -0.119
164. ATCCGGTA  -0.119
165. CTCCTGCA  -0.12
166. CTCTCCAC  -0.121
167. ACAACCCT  -0.122
168. CAATCCTC  -0.123
169. AGCGTGTC  -0.123
170. ACCGTACG  -0.124
171. ACTGTACA  -0.124
172. CTGTGGAC  -0.127
173. ACGACCAT  -0.127
174. CGGCCATC  -0.129
175. AAAGGCGA  -0.131
176. CCAGGTAG  -0.133
177. CGACGAAC  -0.134
178. ATGTAGGC  -0.134
179. AGTCCTTA  -0.135
180. AATAGTAC  -0.138
181. AGGCAACA  -0.14
182. CAATTCGA  -0.145
183. AAGGCAGG  -0.145
184. CTACTTCA  -0.15
185. CCCTTCGG  -0.153
186. ACGGGGGG  -0.154
187. CCAACCCA  -0.154
188. GGAGCTCA  -0.155
189. GACGCTGC  -0.155
190. ATGTCCAG  -0.155
191. GCAGTAGA  -0.161
192. GGTGCTTA  -0.161
193. CAATAAGG  -0.166
194. CACCTTCG  -0.166
195. ACAGGCTC  -0.168
196. TATCTGGA  -0.168
197. ACGACCCT  -0.169
198. AGATGCCC  -0.172
199. GCCAGGGA  -0.175
200. ATACGTTC  -0.176
201. AAGGTGGC  -0.179
202. CGGACCCA  -0.184
203. GGCACACA  -0.185
204. CGGCTACG  -0.191
205. AGTGGGGG  -0.192
206. AGAGCGTC  -0.193
207. CCACGGTC  -0.209
208. AAGGCTCG  -0.214
209. AGACTCCC  -0.222
210. ATTGCTAG  -0.226
211. GCCAATGA  -0.228
212. CAAGTGCA  -0.228
213. GCATTCCA  -0.228
214. GAGGACTC  -0.244
215. CGGTGTGC  -0.25
216. AGAAGTTG  -0.261
217. CCTCTACG  -0.283
218. CGACGTAG  -0.309
219. GGCGCTAC  -0.347
